# Experimental data as given in PubChem BioAssay AID485344 (National Center for Advancing Translational Sciences (NCATS), 2010).
# The campaign covered roughly 340,000 compounds. About 6,900 (2%) were called active. Rule as the data show it: active = inhibition above about 30%; inactive = below that, where a call was filed. The list shows a part of the results, in another mix than the full data. Where no call is shown, the source filed none.
# Target: D(2) dopamine receptor (Homo sapiens) (UniProt P14416)
# Assay: HTS Assay for Allosteric Antagonists of the Human D2 Dopamine Receptor: Primary Screen for Antagonists; also: 0% is about no effect
# Conditions: HEK293 TREx D2 cells, calcium flux, dopamine EC80; at 10 µM; stronger effect = higher value
# How it was run: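 Tetracycline-induced HEK293 T-REx cells expressing D2 force-coupled to calcium signalling were dye-loaded, exposed to compound for 180 s, then challenged with an EC80 of dopamine; calcium flux was followed kinetically for a further 180 s.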
# Sequence of UniProt P14416 (P14416 whole entry, looked up): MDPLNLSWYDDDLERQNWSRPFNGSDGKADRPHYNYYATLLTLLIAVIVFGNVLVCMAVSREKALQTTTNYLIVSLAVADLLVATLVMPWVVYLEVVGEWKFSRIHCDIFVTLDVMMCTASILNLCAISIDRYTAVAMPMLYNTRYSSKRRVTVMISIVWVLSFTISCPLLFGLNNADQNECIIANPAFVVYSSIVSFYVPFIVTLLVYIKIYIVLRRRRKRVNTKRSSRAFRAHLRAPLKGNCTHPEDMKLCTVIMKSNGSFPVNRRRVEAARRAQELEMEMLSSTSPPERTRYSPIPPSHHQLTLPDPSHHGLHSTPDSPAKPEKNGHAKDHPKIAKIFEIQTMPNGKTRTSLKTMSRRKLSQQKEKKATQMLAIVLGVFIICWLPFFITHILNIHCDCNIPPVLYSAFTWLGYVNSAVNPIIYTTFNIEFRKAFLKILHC
row,Structure (SMILES),inhibition
1,COc1ccc(-c2nc(CSc3nc4ncccc4[nH]3)c(C)o2)cc1OC,-4.05%
2,CC(NC(=O)Cc1ccc(NC(=O)N2CCCCc3ccccc32)cc1)c1ccccc1 (centres undefined),-5.34%
3,CC(NC(=O)c1ccc(N2Cc3ccccc3Oc3ncccc32)s1)c1ccccc1 (centres undefined),-3.47%
4,Cc1ccc(/C=C/c2onc(C)c2S(=O)(=O)N2CCC(C(=O)NCc3ccc(Cl)cc3)CC2)cc1,-4.31%
5,O=C(NCCc1ccc(Cl)cc1)c1ccc2c(c1)N(Cc1ccc(F)cc1Cl)C(=O)CS2,-2.35%
6,CCOC(=O)C(C)NC(=O)c1cc2c(=O)[nH]c3ccc(C)cc3c2s1 (centres undefined),-0.751%
7,Cc1c(Cl)cccc1NC(=O)C(=O)NCCc1csc(-c2cccc(F)c2)n1,-22.3%
8,O=C(CN1CCN(c2ccccn2)CC1)Nc1cccc(C(F)(F)F)c1,active: 48.2%
9,Cc1ccc(C(C)C)c(OCC(=O)Nc2c(C(=O)c3ccc(F)cc3)oc3ccccc23)c1,5.91%
10,Cc1cc(O)c(C(c2ccccc2Cl)N2CCCCC2)c(=O)n1Cc1ccco1 (centres undefined),6.28%
11,COc1cc(OC)c(C2C=C(c3ccc(C)cc3)Nc3c(C(=O)Nc4ccccc4)cnn32)cc1OC (centres undefined),-4.23%
12,CCc1ccc(C2N3CC4(C)CN2CC(c2ccccc2)(C3)C4=O)cc1 (centres undefined),4.13%
13,Cc1c2cnn(CC(=O)N3CCCCC3)c(=O)c2c(C)n1Cc1ccc(Cl)cc1,6.15%
14,c1c(C2CCCCC2)n[nH]c1CN1CCCCC1,active: 40.1%
15,CCn1cc(C(=O)NCc2ccccc2)c(=O)c2cc(S(=O)(=O)N3CCOCC3)ccc21,4.08%
16,O=C(Nc1ccc(F)cc1)c1cccc(N2CCCS2(=O)=O)c1,-8.82%
17,CCOc1ccccc1NC(=O)C1CCN(S(=O)(=O)Cc2ccccc2)CC1,26.2%
18,Cc1cc(=O)n(C(C)C(=O)NCc2ccccc2Cl)c2c1c(C)nn2-c1ccccc1 (centres undefined),-9.2%
19,CCOC(=O)C1=C(CNCc2ccccc2)NC(=O)NC1c1ccc(C)cc1 (centres undefined),14.4%
20,COc1cccc(-c2nc(SC(C(C)=O)C(=O)N(C)C)c3c(=O)n(C)c(=O)n(C)c3n2)c1 (centres undefined),-4%
21,Cc1ccc(N2C(=O)[C@@H]3CSC(c4ccc(C(F)(F)F)cc4)N3C2=O)cc1 (some centres undefined),16.9%
22,COc1ccc(-n2c(=O)c3c(C)c(C)sc3n(Cc3ccc(F)cc3)c2=O)c(OC)c1,-9.48%
23,Cc1ccc(S(=O)(=O)N2CCCc3cc(NC(=O)c4ccc(C(F)(F)F)cc4)ccc32)cc1,10.9%
24,Cc1cc(N2CCN(C)CC2)nc2ccc(NC(=O)Nc3ccccc3Cl)cc12,21%

row,Structure (SMILES),inhibition
1,CCN(c1ncnc2c1c(-c1ccccc1)cn2-c1ccccc1)C1CCCCC1,-9.88%
2,Cc1ccc(OCC(=O)OCc2cc(=O)n3nc(C4CCCCC4)sc3n2)cc1,-11.8%
3,O=C(c1[nH]nc2c1CCc1ccccc1-2)N1CCN(Cc2ccc3c(c2)OCO3)CC1,active: 70.5%
4,COc1ccc(N(C(=O)c2ccccc2C)S(=O)(=O)c2ccc3c(c2)n(C)c(=O)n3C)cc1,-5.75%
5,CCOc1ccccc1NS(=O)(=O)c1c(C(=O)OC)sc2cccc(F)c12,14.5%
6,COc1ccc(OC)c(CCNC(=O)c2sc3nc4n(c(=O)c3c2C)CCCC4)c1,17.1%
7,CSCCC(NC(=O)C1CCCCC1)C(=O)Nc1ccc(F)c(Cl)c1 (centres undefined),-12.7%
8,CCNc1c(NC(=O)c2ccccc2OCC)c(=O)oc2ccccc12,4.32%
9,COc1ccc(CCC(=O)NCCc2csc(-c3cccc(F)c3)n2)cc1,-2.11%
10,Cc1cc(CN2CCC(n3nccc3NC(=O)c3ccccc3Cl)CC2)cc(C)c1O,active: 55.4%
11,COc1ccc(NC(=O)c2oc3ccc4c(c3c2C)C(=O)CC(C)(C)O4)cc1OC,-11.3%
12,COc1cc2c(cc1NC(=O)C(C)Oc1ccc(Cl)cc1Cl)oc1ccccc12 (centres undefined),-2.93%
13,CCc1ccc(OCC2c3cc(OC)c(OC)cc3CCN2C(=O)Cc2ccc(OC)c(OC)c2)cc1 (centres undefined),0.824%
14,Cc1ccc(CCNC(=O)CCCn2nc(C)c3c(C)n(-c4ccc(C)cc4)nc3c2=O)cc1,-10.7%
15,COc1cc(-c2nnc(SCC(=O)N(C)C3CCCCC3)o2)cc(OC)c1OC,0.282%
16,COc1ccc(NC(=O)CCCN2C(=O)C(c3ccccc3)Oc3cccnc32)cc1OC (centres undefined),7.83%
17,COc1ccc(-c2noc(CSc3nnc(-c4ccncc4)n3-c3cccc(C)c3)n2)cc1OC,-3.09%
18,Cc1ccc(-c2cc(-c3coc4ccccc4c3=O)c3c(n2)-c2cc(Cl)ccc2OC3)cc1,2.2%
19,COc1ccccc1NC(=O)Cn1c(SCC(=O)NCc2ccccc2)nc2ccccc21,14.2%
20,CCOc1ccc(C(=O)C(CCC(CN(C)C)C(=O)c2ccc(OCC)cc2)CN(C)C)cc1 (centres undefined),active: 37%
21,CC(=O)Nc1ccc(-c2nnc3n(CC(C)C)c(=O)c4ccccc4n23)cc1,9.83%
22,Cc1cc(C)c2c(n1)SCC(=O)N2CC(=O)Nc1c(C)cccc1C,-1.8%
23,Cc1cc(C)cc(NC(=O)Nc2c[nH]c(=O)[nH]c2=O)c1,-13.5%
24,CC(=O)c1c(C)[nH]c(C(=O)Nc2nc(C)cs2)c1C,active: 32.9%

row,Structure (SMILES),inhibition
1,O=C(NC1(C(F)(F)F)N=C(c2ccccc2)N(C2CCCCC2)C1=O)c1ccccc1F (centres undefined),-14.6%
2,COc1ccc(NS(=O)(=O)c2cc3c4c(c2)CC(=O)N4CCC3)cc1Cl,1.94%
3,CNC(=S)N1CCC(c2nc3ccccc3s2)CC1,active: 68.3%
4,COc1ccc(OC)c(CCNc2ncnc3onc(C)c23)c1,1.1%
5,CCn1c(CN2CCC(C)CC2)nc2cc(NC(=O)c3cccc([N+](=O)[O-])c3)ccc21,7.13%
6,Nc1nonc1-n1nnc(C(=O)N/N=C/c2ccc3c(c2)OCO3)c1-c1ccccc1,active: 38.6%
7,Cc1ccc(CCNC(=O)c2ccc(CNS(=O)(=O)c3ccc(F)cc3)cc2)cc1,-3.65%
8,CCOC(=O)C1=C(CS(=O)(=O)c2ccc(F)c(C)c2)NC(=O)NC1c1ccc(F)c(F)c1 (centres undefined),-13.5%
9,CC(=O)N1CCc2c(sc(NC(=O)CSc3ccc(C)cc3)c2-c2nc3ccccc3s2)C1,9.04%
10,Cc1cccc(N2CCN(C(=O)c3cccc(-n4c(C)nc5cccnc54)c3)CC2C)c1 (centres undefined),-5.41%
11,COC(=O)C1=C(C)NC2=C(C(=O)c3ccccc32)C1c1ccc(-c2ccc(C(=O)O)cc2)o1 (centres undefined),active: 54.8%
12,Cc1c(C(=O)Nc2ccccc2Cl)oc2ccc(S(=O)(=O)N3CCCCCC3)cc12,-16.9%
13,COC(=O)c1c(NC(=O)CCCOc2ccccc2C)sc2c1CCC2,3.21%
14,COc1ccc(CNS(=O)(=O)c2ccc3c(c2)C(C)(C)C(=O)N3C)cc1OC,-3.42%
15,Cc1ccc(C(C)C)c(OCC(=O)Nc2ccc(-c3nc4ncccc4o3)cc2C)c1,15.8%
16,Cc1ccc(C)c(NS(=O)(=O)c2ccc3c(c2)CCCN3C(=O)C2CCC2)c1,18.5%
17,COc1ccc(C(C(=O)NCc2ccccc2)N(C(=O)Cn2nnc3ccccc32)c2ccc(OC)cc2)cc1 (centres undefined),-14.3%
18,O=C(c1ccc(NS(=O)(=O)c2ccc(F)cc2)cc1)N1CCC1,active: 41.8%
19,Cc1ccc(Cn2c(=N)c(C(=O)NCc3ccco3)cc3c(=O)n4ccccc4nc32)cc1,active: 82.9%
20,O=C(Cn1c(=O)c2sccc2n(CC(=O)Nc2ccc(Cl)cc2Cl)c1=O)NCCc1ccccc1,-13.1%
21,Cc1ccc(NC(=O)N2CCc3c([nH]c4ccccc34)C2c2ccccc2F)c(Cl)c1 (centres undefined),1.08%
22,CCCN1Cc2cccc(C(=O)Nc3ccc(OC)cc3OC)c2C1=O,-1.34%
23,COc1cccc(C(=O)c2cn(CC(=O)Nc3cccc(Cl)c3C)c3nc(C)ccc3c2=O)c1,-4.43%
24,COCCN1C(=O)c2oc3ccc(C)cc3c(=O)c2C1c1ccc(C(=O)OC)cc1 (centres undefined),-17.8%

row,Structure (SMILES),inhibition
1,CSc1ncc(C(=O)NCc2cccc(Br)c2)c(-c2ccccc2)n1,-2.48%
2,COc1ccc(NC(=O)c2ccc(-n3cncn3)c([N+](=O)[O-])c2)cc1OC,active: 35.3%
3,Cc1cccc(C)c1OCc1cc(=O)n2ccsc2n1,1.3%
4,COc1cc(OC)c(NC(=O)C(C)n2nc(-c3ccc(C)c(C)c3)ccc2=O)cc1Cl (centres undefined),-1.13%
5,COc1cccc(NC(=O)CSc2nnc(NC(=O)NC3CCCCC3)s2)c1,22.4%
6,CN(C)c1ccc(-c2nc3ccccn3c2Nc2ccc3c(c2)OCCO3)cc1,8.3%
7,Cc1cccc(N2CCN(C(=O)c3c4c(nc5ccccc35)C(=O)N(C3CCCCC3)C4)CC2)c1C,-6.02%
8,COc1ccc(OC)c(NC(=O)c2cc3c(=O)n4cccc(C)c4nc3n2C)c1,7.71%
9,Cc1ccc(CC(=O)NCc2nc(-c3cccc(C)c3)no2)cc1,17.6%
10,Cc1ccc(N(C)C(=O)c2noc3c2CCCCC3)cc1C,10.2%
11,COc1cccc(NS(=O)(=O)c2ccc3[nH]cc(C(=O)N(C)Cc4ccco4)c(=O)c3c2)c1,22.4%
12,Cc1nnc(N2CCC(C(=O)NCc3cccc(Cl)c3)CC2)c2nn(-c3ccccc3)c(C)c12,11%
13,CCc1ccccc1N1CC(c2nc3ccccc3n2CCC2CCCCC2)CC1=O (centres undefined),-3.19%
14,Cn1c(=O)c2c(c3ccccc31)OC(=O)CC2c1ccccc1 (centres undefined),-5.03%
15,COc1ccc(NC(=O)c2ccc3c(=O)n4nc(Nc5ccccc5C)sc4nc3c2)cc1,-4.61%
16,O=c1c2ccccc2n2c(-c3cccc(F)c3)nnc2n1Cc1ccccc1,24.4%
17,CC(C)c1ccc(NC(=O)CSC2=Nc3ccccc3C3=NC(CC(=O)NCc4ccco4)C(=O)N23)cc1 (centres undefined),3.74%
18,CCOC(=O)N1CCN(C(=O)c2cnn(-c3cccc(C)c3)c2-n2cccc2)CC1,-5.08%
19,Cc1ccc(-n2nc(C)c(C(=O)NCCCN3CCN(c4ccccc4F)CC3)c2-n2cccc2)cc1,1.21%
20,CCOC(=O)c1cnc2c(C)cc(C)cc2c1Nc1ccc(N2CCOCC2)cc1,9.44%
21,COc1ccc(C(=O)Nc2ccc3c(c2)N(C)C(=O)c2ccccc2S3)cc1OC,18.3%
22,COc1ccc(Cn2c(C3CCCCC3)nc3c(c(=O)c4ccccc4n3C)c2=O)cc1,active: 41.9%
